According to the supplement of paper PMC10126150:
Sequences with one replicate were seen in a single cluster, so their values are uncertain.

Tested on: ATP
Test: switch fluorescence ratio, 500 uM ATP over buffer (Cy3 cluster intensity, sum of 5 cycles each) (fold (ratio)); higher = stronger signal-on switching upon ATP binding; sequences stand for … in TCGTCGGCAGCGTCAGATGTGTATAAGAGACAGTTTTTTTTTTTTTTTTTTTTTTTTT…TC
Conditions: aptamer strand: ATP DNA aptamer (quencher-CACCTGGGGGAGTATTGCGGAGGAAGG + anchor), 100 nM annealed; ATP concentration: 500 uM; one replicate
Outline: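 Switching-strand clusters labelled with Cy3 on a modified Illumina MiSeq flow-cell were annealed to 100 nM quencher-labelled ATP aptamer, imaged in selection buffer, and re-imaged after 15 min with 500 uM ATP at 22 °C. This was done over five cycles with NaOH stripping and re-annealing in between. The fluorescence ratio is summed target-cycle over summed buffer-cycle Cy3 intensity per cluster, averaged per switch-domain sequence, excluding clusters outside 100-1000 RFU.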
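Also: ATP exposure 15 min at 22 °C before imaging.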

Sequence | switch fluorescence ratio
ACAATATAT | 1.02
GGGCCAGTCG | 1.22
TTTAGTTAGT | 0.949
GAAGTTTTTC | 1.06
TTCGATTTCC | 1.03
AGGACGGGTA | 1.01
CGTCGGTGTA | 0.971
CCTATGGCAT | 1.65
TCGCGCGGT | 0.984
TTATTATAGC | 1.03
CGGCGACATC | 1.09
TTGCGAAGAA | 1.01
TTTAGGTCGT | 1
GACAGGTACT | 1.08
GTGGTTATCA | 1.01
TAACGGGCTT | 0.981
CACACAAAGT | 1.05
CCATCATGCA | 1.04
CAATTAACTC | 1.04
ATTGCGTATC | 1.01
GGGTCTATTA | 0.985
GGCCCGTATT | 0.981
CTCTCTCGTC | 1.07
AGTGATTTAC | 1.03
CATAGCAGAA | 1.11
ATGCAACCGA | 1.12

Sequence | switch fluorescence ratio
GCTACTCGTT | 1.05
CAAGGATGGC | 1.04
AGTTTCGCAA | 4.05
GCAAACGG | 1.05
GACTCGGGAC | 1.24
TAACATGCAG | 1.02
AGAAACCCAG | 1.02
ATAGTAGGTG | 0.997
TTGTGGTGTA | 1.01
AGTGTACGTC | 1.02
ATCGGCTGGA | 1.02
GCGCCGCTGC | 1.58
GGTCCTTCCA | 1.01
CTCGACGACT | 1.03
GAACGCAGGG | 1.21
TACGGCGTTG | 1
TTGCAATGGG | 1.16
TTTCGAGACT | 1.02
TCAACCCGTA | 0.978
AGATTATTCG | 0.971
GTGAATGGAA | 0.966
TTGTGGTCT | 0.974
TCGTTATGGT | 1.06
CTCCCTAGGG | 1.2
GCCAGGCGGC | 1.03
TGTCGTGTCA | 0.989

Sequence | switch fluorescence ratio
AATGTTAACT | 1.03
ATAGTACAAG | 1.02
ACTCACTTCG | 1.12
GATGCCTGAT | 0.993
GGAGTAGAAC | 1.04
CAGTAGCTGC | 1.78
ATAAGCTGAG | 0.978
CTCTCGGAAA | 1.01
CTTCTTGACT | 1.03
TTTTATAGC | 0.971
TAGCTAGTG | 0.983
ACGTGCAGGG | 1.03
CTTTTTTAT | 1.05
GGATATCGTA | 1
TTTACGCTAA | 1.26
TTATCCCCGC | 1.45
TCAGAAAGCT | 1.3
TACTATGTAA | 1.05
TGCCACGGGT | 0.99
ACTTGAGTG | 0.96
TTGTGAAGAC | 0.987
TACTTATAGA | 1.04
CAATGTTTAC | 0.999
TCTGGGTTGT | 1.01
TCTGATTTTT | 1.02
TATGAATGCT | 1.01

Sequence | switch fluorescence ratio
TAGGGTGCAG | 0.972
CAGGATCCAT | 0.963
GCACCGATAA | 1.22
AGCAAGAGGT | 1.05
ATACTCAGTT | 1.07
ACTGTCTGAA | 0.965
GTTAGACGTC | 1.1
AAAAATGA | 1.05
CTTGTTATTA | 1.03
TAAGTGCTAC | 1.03
GCGGCCTTGG | 0.994
AGTGTCACG | 1
GCATTTCCTC | 1.17
CTAGAAAGAG | 0.974
ATAATAGTCT | 1.03
GATGCTCCTG | 1.02
CAATAGTAGG | 1
TGTCATACAA | 0.974
GGATGAATAT | 0.981
ATGGGAGGG | 0.974
CATGACGGTA | 1.11
TACCGCGGTA | 0.995
ATCATTCACC | 1
TAACATCAGG | 1.08
TCTAATGCAC | 1.08
AATTACTAAA | 1.04

Sequence | switch fluorescence ratio
GCAACCGGGG | 1.09
CTTTCCCTGC | 1.16
TATCCAATTT | 1.01
CGTGCGCAGT | 2.08
GTCGGTGTAG | 1.02
CTCCGTCGTG | 1.34
AAGTAGAGCC | 0.935
TCCGGGCCGT | 1.19
GTGGAGCTAC | 5.13
GGTTGCGGTC | 0.999
TTCCCCGATT | 1.12
TAATGCTACA | 1
GGAAAA | 0.972
CAGACTCATA | 1.04
ATTGAGGCTA | 0.989
GATATCACAC | 1.04
GCCCTCCCCG | 1.84
GTATGGGCTT | 1.06
GACCTAAGGC | 0.998
TTTCGACCCG | 1.12
AAATAATCGC | 1.02
GCTTCTCACT | 1.02
GCCGGCGTCT | 0.974
GCGTGCCGAT | 0.978
TTGAATTATG | 0.981
TTATTCAC | 1.05

Sequence | switch fluorescence ratio
ATTTGGCTAG | 0.992
TCTTAAACTT | 1.14
CAATATAGAG | 0.997
CGCATTCACT | 2.64
GTCAAACGAT | 1.02
GAGCAGAGCT | 0.982
TACGCCGCGG | 1.17
CAAATGTTCG | 1.01
TCATCAGCGC | 0.987
CGTTGGTCGA | 1.02
ACTGAGTATC | 1.01
TAGTGCTGC | 1.04
TGTATGCAGG | 0.935
ATCGGGATT | 0.994
ATGATACGTC | 0.953
TGCCGTCGCT | 0.976
TCATGGCCTT | 1.05
GTGAATGCGT | 1.01
GGTGGGGGAA | 0.997
CTCGTTGTAT | 1.02
ACCTTCGATT | 1.1
GGTGCCGTAA | 1.03
CTGCTCGGCT | 0.949
TTATTTGGAC | 1.03
CACGCTGGGT | 1.04
TATACGGGGT | 0.989

Sequence | switch fluorescence ratio
CTAGCAAACG | 1.5
TGACGTTTGG | 0.968
TTCAAAAAGG | 1
AAAGAAGTC | 1.04
ATCCGTTTGA | 0.977
TCTACTTTTA | 1.01
CGAGTGGTAC | 1.29
CTTCGTCGAC | 1.22
TGAGTGTTCG | 1.01
CGCCAAGCC | 1.84
GTTAAATTCG | 0.931
CAAAGAAATG | 1
ATATCTGATA | 1.02
TGATTCTACC | 1.03
TGAACCGTAG | 1.08
TGATACGATT | 1.04
CGGGCGGGTT | 0.999
ACAATGGTGC | 1.08
TAATTTGACG | 0.907
CCGACTTAGT | 1.19
AGCGCATGGG | 1.04
TTCGAGGACG | 0.991
GTGGTCATCC | 0.973
GCGGTATTGG | 0.978
GTTGTTTCTT | 0.975
GGTTTCTAGC | 0.965

Sequence | switch fluorescence ratio
CAGGGGTCCT | 1.02
GCTTGTGGGG | 0.974
GATATCAGCG | 0.929
CGATACTGAT | 1.02
TGGAGCTAAG | 1.1
TAGTTAGAG | 1.01
GGAGCAGTTC | 5.1
CCTGTGGATA | 1.04
TATTCCTGAA | 0.957
TATTAAACGT | 1.07
AGAAAACAAA | 1.12
CAATATAAGA | 1.07
CGCCATTTTG | 1.02
GGGTAAGATA | 0.994
TTTTCTCATT | 0.984
TTCTAAGGGC | 1.01
CAATCCCCGG | 0.993
GTGGGCAAGC | 1.09
TTCGGAAAAG | 1.01
